From the supplement of paper PMC3334620
In all, about 33,000 sequences were measured (“E-score (-0.5 to 0.5)”: median about -0.012, highest 2% from about 0.27 on). The list shows a part of the results.

target: T1, Vhr1 (UniProt P40522); assay: PBM E-score (8-mer binding enrichment) (E-score (-0.5 to 0.5)); higher = stronger / more preferred TF binding; most listed sequences are background and not binding sites; settings: protein concentration: 200 nM; construct: GST-full length
T1 sequence: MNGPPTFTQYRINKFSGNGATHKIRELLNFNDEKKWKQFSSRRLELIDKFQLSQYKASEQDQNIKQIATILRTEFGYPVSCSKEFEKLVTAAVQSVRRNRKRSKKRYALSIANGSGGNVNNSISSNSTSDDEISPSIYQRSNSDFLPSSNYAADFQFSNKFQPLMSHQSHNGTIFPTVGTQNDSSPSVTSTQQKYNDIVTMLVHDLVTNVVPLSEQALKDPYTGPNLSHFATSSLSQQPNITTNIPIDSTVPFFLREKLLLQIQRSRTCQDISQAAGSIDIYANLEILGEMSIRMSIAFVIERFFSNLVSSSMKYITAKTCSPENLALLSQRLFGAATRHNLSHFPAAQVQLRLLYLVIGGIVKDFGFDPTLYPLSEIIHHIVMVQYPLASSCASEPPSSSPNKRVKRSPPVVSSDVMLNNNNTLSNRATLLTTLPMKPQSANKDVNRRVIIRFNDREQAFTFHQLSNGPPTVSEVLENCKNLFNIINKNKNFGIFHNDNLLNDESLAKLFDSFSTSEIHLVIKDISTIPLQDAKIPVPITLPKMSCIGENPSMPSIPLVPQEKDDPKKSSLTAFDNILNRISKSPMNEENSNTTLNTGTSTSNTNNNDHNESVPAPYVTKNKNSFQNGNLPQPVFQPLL
Description: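 Universal 'all 10-mer' protein binding microarrays (Agilent AMADID 015681) probed with GST-tagged S. cerevisiae TFs (full-length or DBD) made by in vitro transcription/translation (PURExpress), about 100-200 nM. Bound TF was detected with fluorescent anti-GST. Each ungapped 8-mer (which stands for itself and its reverse complement) is scored by the PBM enrichment score (E-score), a modified Wilcoxon-Mann-Whitney statistic from -0.5 to +0.5, computed with the Universal PBM Analysis Suite. Scale: above 0.35 generally sequence-specific binding.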

Sequence	PBM E-score
CCCTATAA	-0.115
TCCATAAA	-0.0842
CGATCCTC	-0.0732
CTCTGGTC	-0.0103
AAGGCAGA	-0.122
GTCTCCAC	0.117
GATCCAGA	0.0935
CAGCGATA	-0.0998
AGATAATC	-0.196
CTGGTTCA	-0.0177
AAGCCCTT	-0.268
CATACCCA	0.271
AGGGGACG	-0.163
GCCGTGGA	-0.198
CGACACTA	0.201
AGAACAAC	-0.114
CATTTATA	0.0707
ACTCTTAC	0.163
AAGTGTAG	0.0716
CGGTCCGA	0.0103
TAGAAAGA	-0.134
AATAGGAG	-0.179
GACGCAGC	-0.175
AATTGAAG	-0.235
AGAAGCGC	0.16

Sequence	PBM E-score
ACTAGGAG	0.101
AATAAGTA	-0.0992
AGATTTGA	0.0476
GCGCCCTA	-0.126
ATCTTTCA	-0.0137
AGTCTTGC	0.0289
GGGGTTCA	-0.0551
AGTCCAAC	-0.148
GTGTACGA	0.179
ACAAGCAC	-0.0697
AAAAAGTG	-0.112
CCGGTCGC	-0.0251
GCCCAGAC	-0.15
CCTGAAAA	-0.276
ATAGTGAT	0.145
CACAAACA	-0.0304
CTACATTA	-0.0643
AGAACACC	-0.119
CCATTAGA	-0.0764
ATCTAATG	-0.157
ACACAAGA	0.0208
GAGATTCC	0.155
AATCTTCC	-0.0898
ATGTTAGG	-0.0862
AGAAGTCT	-0.247

Sequence	PBM E-score
CCCGTTCC	0.0146
AAACTTAA	-0.0817
AGTTAGGG	-0.127
ATTACGAC	-0.00849
GAGTCCCA	0.249
AGGGTTGA	0.12
AAATCCTT	-0.265
CACCGGTC	-0.149
CAGTAGGA	-0.0712
TACCGGCA	0.0165
ATAACAGA	0.0646
ACCGACTG	0.177
AACAAAAC	-0.0325
CACACGCG	0.21
CCGGACGA	0.128
CCTTCAGA	-0.187
AGACCGGG	0.0202
CCCGGGCA	0.215
CTCGAATC	-0.0369
AGCGCTAG	-0.148
CTACCTCA	-0.00038
CATGTCCG	-0.284
ACGCAAGG	-0.037
AACAGGTT	-0.0643
AGTTCATG	0.195

Sequence	PBM E-score
CAATCAGC	0.193
ATGACGTC	0.00796
AATTGATG	0.147
CCCAGCGC	0.0578
AATTGCAA	-0.176
CATGCGCC	0.00622
AGACATGG	0.192
GTTTGTGA	-0.0971
AGACGTGA	0.112
CGTCATGC	0.0219
ATCAATGG	-0.00322
CCGATAGG	0.0123
AACTGAGC	-0.115
AAGGTCTC	-0.244
AACCCCTG	-0.104
TTCGCAAA	0.0604
GCAACGAA	-0.0344
ATCTAAAC	-0.19
AGTTGATC	0.0148
ACTGCCAA	0.175
AGGAGAAT	-0.0556
AGAATATC	-0.0545
ACGAACGA	0.00214
AGTAGGCG	-0.036
CTATAGTA	0.0768

Sequence	PBM E-score
CAACTCGA	0.0405
ACGACTGA	0.123
CGCCATGA	0.171
TACTGTAA	-0.00637
ATTGTCTC	-0.0333
TGAAACCA	0.0959
ATCCTTGA	-0.0054
CGAGATGC	-0.00486
ACCCTCAA	-0.107
GGGACCCA	0.0966
AATTTCCG	-0.108
ATATCAGG	-0.239
ATTTCAAA	-0.276
CACGCGCA	0.0157
AATAGCTG	0.0192
GGTGGGAA	0.04
CCTCCGCC	-0.106
GAATGCGA	0.0442
CTATCCAG	-0.116
AGTAGCTA	0.00862
AGCATACA	-0.0103
GGTAGCAC	-0.107
GTTTCGGA	-0.0898
AGGCCGTG	0.0612
AAGTAATT	-0.197

Sequence	PBM E-score
ATTATTTC	-0.00699
CCTCCCAG	-0.166
CACAACGC	0.134
AGCCTTAT	-0.0675
GGGATCAA	-0.109
GACGGACA	0.0577
CGGTGGAG	0.0843
CTCAAGCC	0.00694
GAGAGAGC	-0.139
CGGCCGAA	0.185
ATGGACCA	0.0163
AATCTAAT	-0.177
CGGCGGAA	-0.00749
GTGTGTTA	0.278
ATCCGTGC	0.05
CGCGCAAC	0.0746
AAATGGGG	-0.0546
ATAGGACA	-0.0209
CCACGTTA	0.0119
ACTATCCA	0.099
CTAGAGTA	0.0294
ATCAATAG	-0.0349
CTCCCTCA	-0.11
AACCCTTC	0.0451
AATTCGTC	-0.0585

Sequence	PBM E-score
ACACCAGT	0.0743
AGAACCCA	0.0152
GCCCTGGA	-0.101
CCCGATGC	-0.18
ACACAAAC	-0.0255
GCACTGAC	0.0316
GAGGACCA	0.0256
TATTTGGA	-0.196
GGCTATGA	0.0249
CATAGGAA	-0.255
CCCAGACA	-0.0129
CCACGAGA	-0.145
AGTCCTCC	0.0948
ATTCTAAA	-0.135
CCAGCCGC	0.227
AGATTAAA	0.0709
CCATTGAC	0.0516
TCCGTTCA	-0.221
AGAGTACG	-0.088
ATGTTAAT	0.0826
GAGGGACA	0.00909
ATCGGAGC	-0.049
ATAAGGGA	-0.137
AACGTAAT	-0.0132
AGGCTCGC	0.0638

Sequence	PBM E-score
CGAAGGAA	-0.0766
AGGCGCCG	0.0289
AGTGTTAC	-0.0469
ACCGCATG	0.0669
ACGCTTGA	-0.0784
ATTACCTG	-0.12
CCGCAGCA	0.0345
CTTTTAAA	-0.317
AAGGCCGT	-0.148
CATGCTCG	0.129
CAAAGGGC	0.0988
ATGGGACG	-0.0961
AAATGGCA	-0.0189
GTAGTATA	0.217
AAGGCTTA	-0.209
CAAAGTGA	0.0453
CAACCCCA	0.06
CAGACACC	0.0912
AGTTTGAT	0.0522
CTAGTCCA	-0.00673
CCCGACCG	-0.0249
GAATCGGA	0.139
GGCAACGA	0.00983
ACGATACG	-0.149
CGGTCTCC	-0.0871

Sequence	PBM E-score
CGAAGGGA	0.093
ATAAAGGC	-0.282
ACCCGTAC	0.0748
AGAACTCA	0.037
AGTAGTGG	0.135
CGGGTCTA	0.0285
ACTGACCC	0.0589
AGGCGGGC	0.118
ACATGTCA	0.0414
AATTAGAA	-0.0829
TAGGATCA	0.0683
AACGCGAG	0.0573
GACACTTA	-0.0355
GCTGCAGA	0.0309
ATGTCAAA	-0.172
AAACACTT	-0.172
GCCCCGGA	0.0718
GCAACCCA	0.0849
ACACGCAA	0.124
CCAAACCA	-0.0717
GGCGCACC	0.0793
AGACGTAT	-0.0316
AGTGATCA	0.151
GTTATTAA	-0.0935
AACTGCAG	-0.111

Sequence	PBM E-score
AGGAAAGC	-0.169
ACTAAAGT	-0.0442
CGACAATC	0.0993
CCCCGTCA	0.0329
ACGTATAA	0.0234
ACCCCTAG	-0.00022
ATTCCAGC	-0.0337
AGTCTTCC	0.203
CGGATGCA	-0.289
GGTGAGAC	0.044
GAATTTGC	-0.0954
CTTGAAGC	-0.296
GAACTCAC	0.151
ATAGGCGC	-0.24
CCGCGGAA	-0.0813
CCCGGACC	0.0207
CACCGTGC	0.0956
ATGTTCCC	0.137
AACTGCAA	-0.0197
CTACGAAA	-0.208
CATAAAGA	-0.0719
AGCACCAC	-0.0194
GCCGTGCC	-0.0466
TCAGTACA	0.00165
AATACCGT	0.0598

Sequence	PBM E-score
CTCTGACA	-0.0344
GCGCTACC	-0.211
AAGAAGCA	-0.0698
TTATCAAA	0.102
TATGAACA	0.161
GCGAGGCA	0.0598
AAGACGCT	-0.263
ATTTAATA	-0.0341
AAATGGAA	-0.257
GTGAGGTA	0.0496
CAGCCACC	0.206
AGTAATAT	0.166
CTCAGACC	-0.00267
CACAAAAG	-0.0041
CAGGGCTC	-0.0787
CGAGAAAA	-0.162
CTAATCGC	0.0314
GGTGGGTA	0.159
CGCGACCA	0.245
CACGATTA	0.125
ATCCTTCG	-0.0337
GATGGCAC	-0.127
AGTCTGAC	0.148
AAAACTGA	-0.182
ATTGCGGA	0.125

Sequence	PBM E-score
CCGCAAGG	-0.193
CTAACGCA	-0.137
GAGTCCAC	0.197
ACTCGAAT	-0.049
CGTAGCGA	-0.00349
AGATTATA	-9e-05
ATTCTCCG	-0.00042
AAACACGA	-0.161
CACACGAG	0.155
ATTTTGTA	0.0819
TCAGCGAA	-0.0705
CAGCTTCA	-0.0908
ATATAGAC	0.031
CACCGTAA	0.0211
CCCCAGAC	-0.174
ACGCAACG	0.0366
AAAACTCG	-0.0315
TCACTGAA	0.0867
CATCTCTC	0.0645
AGTCGTTC	0.0102
AGATGGAT	0.0323
ACTCAAAA	0.182
CACCTCGA	0.111
CCCAGGTC	-0.211
ATTCTTAC	-0.00122

Sequence	PBM E-score
CCTGCGCC	0.0768
ATTAGAGG	-0.169
CTGCAATC	0.136
TAAGATGA	-0.0629
ATCCGTAG	-0.084
GACAATAC	0.0584
CCTCGACA	-0.029
CTGTCAGA	0.00518
CTACAGTA	0.16
GGAAATAC	-0.217
AGCGTTAC	0.0402
ATGGAGAA	-0.00736
AGTCCGAC	0.193
AGAACGGA	-0.209
AAGGGTCG	-0.166
GTAGTGAC	0.217
CGCATCCA	0.049
AGGCATTA	-0.214
CATCGACG	0.0693
GGCTGTAA	-0.109
CGGGGTCC	-0.227
AGATCTCA	-0.042
GCTCGATA	0.0314
GAGAACGA	-0.0856
AAACAACA	-0.0202

Sequence	PBM E-score
CGATTATC	0.0945
ACGCCACC	0.0236
ATAATTTG	-0.0159
TCTGAAGA	-0.212
TCTCTGCA	-0.115
CCACATCG	0.127
CGGGGATA	0.0148
AAGTTGTA	0.0509
AGACATCA	0.169
CAGGGTTA	-0.0475
ACTGTCAC	-0.00022
AGGTGTTA	-0.164
CGACGTCC	-0.0634
ACAATAAA	-0.0918
CCCGTTAA	-0.111
GCTCGAGA	-0.207
ACGACGCT	-0.0624
ATAGCTAC	0.0717
AACATTGG	-0.149
